These are yes or no findings as the source states them, for the method shown. Binding seen in cells or lysates may run through a third protein. Some results given as binding are weak or reduced against the parent protein; the word gives no strength. For some of these results: Where a sequence is shown, tags or fusion partners need not be part of it.
How the values were obtained:
[1] = target: Integrin β1, endogenous (human (endogenous in ESCC cells)) (UniProt P05556); assay: co-IP; endogenous proteins from ESCC cells transfected with IFIT3^Flag or Vector plasmid, or shRNA IFIT3 or shRNA-NC plasmid; also KYSE410^shLASP1 cells with IFIT3 and LASP1 overexpressed
[2] = target: T1, IFIT3, endogenous (human (endogenous in KYSE150)) (UniProt O14879); assay: co-IP; IP and immunoblot of exogenous IFIT3 (KYSE410) or endogenous IFIT3 (KYSE150) and endogenous LASP1 from cell extracts; IgG as negative control
T1 sequence: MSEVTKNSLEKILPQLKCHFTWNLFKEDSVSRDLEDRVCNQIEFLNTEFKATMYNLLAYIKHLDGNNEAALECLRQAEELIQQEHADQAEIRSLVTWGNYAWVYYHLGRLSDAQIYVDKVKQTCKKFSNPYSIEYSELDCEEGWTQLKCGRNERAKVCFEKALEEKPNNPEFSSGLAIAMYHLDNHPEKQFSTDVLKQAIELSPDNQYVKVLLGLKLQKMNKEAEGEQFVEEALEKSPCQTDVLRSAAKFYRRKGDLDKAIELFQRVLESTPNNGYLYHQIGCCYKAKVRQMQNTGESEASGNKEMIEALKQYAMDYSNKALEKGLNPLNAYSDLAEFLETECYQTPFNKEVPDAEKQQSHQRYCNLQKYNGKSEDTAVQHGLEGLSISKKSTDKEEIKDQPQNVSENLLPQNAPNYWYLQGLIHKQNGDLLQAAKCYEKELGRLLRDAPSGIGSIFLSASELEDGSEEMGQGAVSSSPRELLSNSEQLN

By UniProt entry, the sequences of proteins in these tests, tags left out.
UniProt P05556: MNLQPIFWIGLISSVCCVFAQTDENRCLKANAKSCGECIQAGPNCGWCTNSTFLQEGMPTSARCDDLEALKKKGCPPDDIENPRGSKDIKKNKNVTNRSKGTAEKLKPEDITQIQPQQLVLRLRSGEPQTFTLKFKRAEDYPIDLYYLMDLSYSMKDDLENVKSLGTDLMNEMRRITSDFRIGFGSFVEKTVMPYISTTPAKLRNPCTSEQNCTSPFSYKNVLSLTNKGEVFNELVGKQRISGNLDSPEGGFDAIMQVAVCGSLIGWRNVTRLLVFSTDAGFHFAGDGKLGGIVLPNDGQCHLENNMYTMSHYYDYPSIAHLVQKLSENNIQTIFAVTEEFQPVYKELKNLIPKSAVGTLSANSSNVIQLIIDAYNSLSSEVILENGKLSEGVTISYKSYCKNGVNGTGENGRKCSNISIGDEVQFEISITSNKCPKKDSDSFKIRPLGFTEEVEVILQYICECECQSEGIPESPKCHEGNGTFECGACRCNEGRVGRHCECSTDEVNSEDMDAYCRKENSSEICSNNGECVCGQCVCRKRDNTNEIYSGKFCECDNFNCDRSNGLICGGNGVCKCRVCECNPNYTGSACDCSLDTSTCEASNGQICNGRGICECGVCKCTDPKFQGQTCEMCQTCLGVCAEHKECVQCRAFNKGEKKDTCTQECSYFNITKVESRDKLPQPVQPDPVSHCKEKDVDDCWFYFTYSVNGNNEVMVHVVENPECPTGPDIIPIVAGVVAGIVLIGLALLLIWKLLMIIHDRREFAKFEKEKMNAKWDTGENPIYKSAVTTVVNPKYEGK
UniProt Q9Y490: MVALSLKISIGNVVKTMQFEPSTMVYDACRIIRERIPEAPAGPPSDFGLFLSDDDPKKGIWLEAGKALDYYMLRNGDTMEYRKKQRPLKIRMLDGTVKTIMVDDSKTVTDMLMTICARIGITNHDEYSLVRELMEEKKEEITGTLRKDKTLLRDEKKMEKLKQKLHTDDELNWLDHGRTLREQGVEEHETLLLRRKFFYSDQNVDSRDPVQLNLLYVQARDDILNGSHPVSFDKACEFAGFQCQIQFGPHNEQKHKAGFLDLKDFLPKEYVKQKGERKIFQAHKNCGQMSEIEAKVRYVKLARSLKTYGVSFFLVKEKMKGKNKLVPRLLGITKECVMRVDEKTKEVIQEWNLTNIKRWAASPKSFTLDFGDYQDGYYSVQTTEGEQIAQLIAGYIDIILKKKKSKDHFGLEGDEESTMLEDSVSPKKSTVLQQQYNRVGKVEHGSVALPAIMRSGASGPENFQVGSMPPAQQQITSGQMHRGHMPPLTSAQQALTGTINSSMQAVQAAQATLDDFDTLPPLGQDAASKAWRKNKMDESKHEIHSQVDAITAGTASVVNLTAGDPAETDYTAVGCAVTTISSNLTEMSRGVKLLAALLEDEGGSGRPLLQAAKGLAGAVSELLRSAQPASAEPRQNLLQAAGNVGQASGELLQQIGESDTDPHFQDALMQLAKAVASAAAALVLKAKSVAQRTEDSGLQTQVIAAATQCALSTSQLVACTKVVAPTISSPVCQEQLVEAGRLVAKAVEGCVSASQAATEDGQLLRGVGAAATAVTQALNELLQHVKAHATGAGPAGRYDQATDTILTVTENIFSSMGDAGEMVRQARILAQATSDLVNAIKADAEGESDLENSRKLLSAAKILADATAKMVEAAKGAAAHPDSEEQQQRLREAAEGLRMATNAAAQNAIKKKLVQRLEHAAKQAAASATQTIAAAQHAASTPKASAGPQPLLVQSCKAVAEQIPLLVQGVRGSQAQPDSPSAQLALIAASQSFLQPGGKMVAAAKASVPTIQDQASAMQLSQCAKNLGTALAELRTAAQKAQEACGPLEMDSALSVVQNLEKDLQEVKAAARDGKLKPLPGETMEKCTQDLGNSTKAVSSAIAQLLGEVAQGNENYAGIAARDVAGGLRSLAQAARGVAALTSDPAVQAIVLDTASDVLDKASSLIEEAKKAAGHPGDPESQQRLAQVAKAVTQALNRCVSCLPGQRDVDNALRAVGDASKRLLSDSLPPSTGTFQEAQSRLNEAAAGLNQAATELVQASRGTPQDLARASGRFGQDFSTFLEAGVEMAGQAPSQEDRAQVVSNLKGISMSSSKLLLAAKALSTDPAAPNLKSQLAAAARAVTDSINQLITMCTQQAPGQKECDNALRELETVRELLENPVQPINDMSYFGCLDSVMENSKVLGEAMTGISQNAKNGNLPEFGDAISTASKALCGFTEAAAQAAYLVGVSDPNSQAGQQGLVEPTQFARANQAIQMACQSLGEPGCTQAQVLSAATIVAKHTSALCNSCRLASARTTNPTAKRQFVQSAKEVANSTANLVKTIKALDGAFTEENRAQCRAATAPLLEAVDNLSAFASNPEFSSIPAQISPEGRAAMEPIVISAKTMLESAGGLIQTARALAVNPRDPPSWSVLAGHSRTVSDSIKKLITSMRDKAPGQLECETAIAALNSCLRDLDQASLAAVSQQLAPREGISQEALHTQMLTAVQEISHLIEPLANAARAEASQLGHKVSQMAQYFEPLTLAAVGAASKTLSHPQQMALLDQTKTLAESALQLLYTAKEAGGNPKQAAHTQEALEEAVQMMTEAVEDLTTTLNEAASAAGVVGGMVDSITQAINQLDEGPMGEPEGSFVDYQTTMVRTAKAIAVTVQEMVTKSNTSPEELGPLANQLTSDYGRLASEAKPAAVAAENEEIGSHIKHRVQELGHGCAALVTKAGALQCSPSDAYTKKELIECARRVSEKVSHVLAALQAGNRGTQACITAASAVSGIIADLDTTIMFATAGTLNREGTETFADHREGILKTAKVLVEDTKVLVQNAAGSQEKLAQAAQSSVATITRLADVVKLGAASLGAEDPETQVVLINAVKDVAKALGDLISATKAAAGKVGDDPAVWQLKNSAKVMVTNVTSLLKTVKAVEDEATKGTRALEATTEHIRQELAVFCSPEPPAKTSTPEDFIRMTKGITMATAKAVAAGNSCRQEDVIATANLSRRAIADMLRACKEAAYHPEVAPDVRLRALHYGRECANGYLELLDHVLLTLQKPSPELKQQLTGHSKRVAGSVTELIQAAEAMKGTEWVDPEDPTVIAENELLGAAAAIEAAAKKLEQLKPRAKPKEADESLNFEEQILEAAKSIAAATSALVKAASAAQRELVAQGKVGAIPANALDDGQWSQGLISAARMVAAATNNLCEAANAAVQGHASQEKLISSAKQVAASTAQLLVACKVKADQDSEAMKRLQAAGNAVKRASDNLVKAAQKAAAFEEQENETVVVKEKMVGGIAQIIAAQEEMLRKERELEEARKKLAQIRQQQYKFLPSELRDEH

[3] = target: T2, Flag-tagged IFIT3 (interferon-induced protein with tetratricopeptide repeats 3), full-length (human) (UniProt O14879); assay: as above
T2 sequence: T1 sequence

[4] = target: Talin1, endogenous (human (endogenous in ESCC cells)) (UniProt Q9Y490); assay: co-IP; endogenous proteins from ESCC cells transfected with IFIT3^Flag or Vector plasmid, or shRNA IFIT3 or shRNA-NC plasmid; also KYSE410^shLASP1 cells with IFIT3 and LASP1 overexpressed
[5] = target: T2, Flag-tagged IFIT3 (interferon-induced protein with tetratricopeptide repeats 3), full-length (human); assay: co-IP; 293T (HEK293T) cells transfected with IFIT3-Flag and LASP1-HA plasmids
[6] = target: T3, Flag-tagged C-terminal IFIT3 (ΔN, 281-490 aa) (human) (UniProt O14879); assay: co-IP; HA-tagged LASP1 with Flag-tagged IFIT3 or its deletion mutants; anti-HA or anti-Flag immunoprecipitation, anti-FLAG/HA immunoblots; cells not given
T3 sequence: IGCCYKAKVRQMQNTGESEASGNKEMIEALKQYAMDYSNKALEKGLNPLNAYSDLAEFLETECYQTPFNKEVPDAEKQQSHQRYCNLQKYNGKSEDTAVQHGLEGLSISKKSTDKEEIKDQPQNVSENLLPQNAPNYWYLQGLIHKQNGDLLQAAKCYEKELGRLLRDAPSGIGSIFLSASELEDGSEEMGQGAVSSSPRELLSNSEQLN

[7] = target: T4, Flag-tagged N-terminal IFIT3 (ΔC, 1-280 aa) (human) (UniProt O14879); assay: as above
T4 sequence: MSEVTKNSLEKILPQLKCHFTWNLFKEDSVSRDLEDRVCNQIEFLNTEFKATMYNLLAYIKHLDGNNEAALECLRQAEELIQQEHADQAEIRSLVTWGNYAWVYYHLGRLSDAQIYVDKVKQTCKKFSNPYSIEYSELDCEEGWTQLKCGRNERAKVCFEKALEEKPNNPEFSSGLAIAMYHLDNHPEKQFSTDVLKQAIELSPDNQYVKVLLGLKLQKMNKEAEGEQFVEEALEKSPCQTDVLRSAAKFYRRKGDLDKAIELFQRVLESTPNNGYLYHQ

**Q.** For “Talin1, endogenous (from UniProt Q9Y490 1-2541)”, which binding [1] is on record?
**A.** Its binding is “binds”.

B1: LIM and SH3 protein 1 (LASP1), endogenous (protein, UniProt Q14847 1-261)
chain: MNPNCARCGKIVYPTEKVNCLDKFWHKACFHCETCKMTLNMKNYKGYEKKPYCNAHYPKQSFTMVADTPENLRLKQQSELQSQVRYKEEFEKNKGKGFSVVADTPELQRIKKTQDQISNIKYHEEFEKSRMGPSGGEGMEPERRDSQDGSSYRRPLEQQQPHHIPTSAPVYQQPQQQPVAQSYGGYKEPAAPVSIQRSAPGGGGKRYRAVYDYSAADEDEVSFQDGDTIVNVQQIDDGWMYGTVERTGDTGMLPANYVEAI
**Q.** What does the source list for B1?
**A.** binding [2]: binds; binding [3]: binds; binding [4]: binds

B2: HA-tagged LASP1 (protein, UniProt Q14847 1-261)
chain: B1 chain
**Q.** B2 was tested. Which binding [5] did it give?
**A.** The binding was “binds”.

**Q.** And the binding [6]?
**A.** Its binding is “no binding”.

**Q.** And the binding [7]?
**A.** The binding was “binds”.

— paper PMC12847741
